Laboratory results taken from PubChem BioAssay AID488969 (Vanderbilt High Throughput Screening Facility, 2010).
In all, about 110,000 compounds were measured (“z-score”: median about -0.1, highest 2% from about 2 on). Some of the results follow. Active and inactive are the calls of the source.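 Rule for the calls: active = z-score in the third read window above 3 or below -3; inactive = the rest.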

Each compound was assayed against Metabotropic glutamate receptor 8 (Rattus norvegicus) (UniProt P70579) (assay: mGluR8 Gi/Go-coupled signaling modulation – cell-based, rat, thallium flux, HTS, primary screen (AID 488969)). Details: HEK293 rat mGluR8, GIRK (G protein-gated inwardly rectifying potassium channel) thallium flux, FluoZin2; at 10 µM; stronger effect = higher value; submaximal glutamate (EC20) added with thallium.
UniProt P70579, sequence (P70579 whole entry, looked up): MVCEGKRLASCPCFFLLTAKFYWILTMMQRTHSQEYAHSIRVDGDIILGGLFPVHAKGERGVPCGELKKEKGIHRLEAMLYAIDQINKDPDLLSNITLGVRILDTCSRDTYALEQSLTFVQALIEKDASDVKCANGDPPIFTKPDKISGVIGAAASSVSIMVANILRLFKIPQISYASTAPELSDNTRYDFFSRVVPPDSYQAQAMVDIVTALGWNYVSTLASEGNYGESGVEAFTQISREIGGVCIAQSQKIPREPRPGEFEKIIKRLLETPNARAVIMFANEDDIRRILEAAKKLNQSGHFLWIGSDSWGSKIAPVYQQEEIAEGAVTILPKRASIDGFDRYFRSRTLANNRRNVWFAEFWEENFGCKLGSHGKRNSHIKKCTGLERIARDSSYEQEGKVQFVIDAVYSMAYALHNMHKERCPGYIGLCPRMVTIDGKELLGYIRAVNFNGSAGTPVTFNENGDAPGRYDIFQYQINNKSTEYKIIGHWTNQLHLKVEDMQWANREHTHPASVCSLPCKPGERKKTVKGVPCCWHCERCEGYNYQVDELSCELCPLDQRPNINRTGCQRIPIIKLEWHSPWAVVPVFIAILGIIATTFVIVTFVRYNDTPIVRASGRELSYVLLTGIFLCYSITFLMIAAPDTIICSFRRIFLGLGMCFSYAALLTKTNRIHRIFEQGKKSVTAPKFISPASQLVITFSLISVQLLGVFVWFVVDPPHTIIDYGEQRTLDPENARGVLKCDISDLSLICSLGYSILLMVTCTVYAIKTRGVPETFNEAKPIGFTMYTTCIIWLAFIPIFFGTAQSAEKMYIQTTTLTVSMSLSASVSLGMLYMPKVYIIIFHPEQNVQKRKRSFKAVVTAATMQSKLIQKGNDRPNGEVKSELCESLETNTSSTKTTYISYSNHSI

| SMILES | z-score |
| --- | --- |
| CN(C)CCCN(C(=O)CCc1ccccc1)c1nc2c(F)cccc2s1 | 1.15 |
| CCc1c(C)nc(N2CCN(Cc3ccccc3)CC2)[nH]c1=O | -0.111 |
| Cc1ccc(C)c(-c2nc3ccc(N)cc3[nH]2)c1 | -0.0213 |
| COc1cccc(N2CCN(C(c3ccccn3)c3nnnn3C(C)(C)C)CC2)c1 (centres undefined) | 0.761 |
| CCOC(=O)c1oc2c(c1C)/C(=N/O)CCC2 | 0.105 |
| C=CCn1c(N)c(C(=O)Nc2ccc(C)c(C)c2)c2nc3ccccc3nc21 | 0.661 |
| CCSc1nnc(NC(=O)c2ccc(C)o2)s1 | -0.482 |
| O=C(NC1CCCC1)c1noc2c1CCCCC2 | -0.282 |
| COc1ccc2[nH]c(=O)c(-c3noc(-c4ccccc4)n3)cc2c1 | -0.102 |
| O=C(N1CCOCC1)N1CCN(S(=O)(=O)N2CCOCC2)CC1 | 0.338 |
| Cc1ccc(-c2nn(-c3ccccc3)cc2C(=O)OCC(=O)Nc2ncc(Cl)cc2Cl)cc1 | -0.251 |
| O=C(N/N=C/c1ccco1)c1cccc(S(=O)(=O)Nc2ccccc2Cl)c1 | -0.35 |
| CCOC(=O)N1CCN(C(=O)COc2cccc3c2CCN(Cc2ccccc2F)C3=O)CC1 | -0.403 |
| CC(C)(C)c1ccc(C(=O)N/C(=C\c2cccs2)C(=O)NCc2ccco2)cc1 | -0.333 |
| COC(=O)CSc1nnc(CNc2ccc(Cl)cc2)n1-c1ccccc1 | -0.193 |
| Cc1ccc(C(=O)CC(=O)c2cccc(F)c2)c(O)c1 | active: 8.38 |
| CCCCOc1ccc(C(=O)N2CCCC2C(=O)O)cc1 (centres undefined) | -0.212 |
| CCc1ccc(-c2nc(CN3CCCC(C(=O)O)C3)c(C)o2)cc1 (centres undefined) | 1.34 |
| O=C(NCc1cccnc1)c1cccnc1-c1nc2ccccc2s1 | -0.394 |
| COc1ccc(N2C3=C(CC4=C2CCCC4=O)C(=O)CCC3)cc1 | -0.404 |
| COc1ccc2c(c1OC)C(=O)OC2Nc1ccccn1 (centres undefined) | -0.13 |
| COc1cc2ccccc2cc1C(=O)Nc1cccnc1 | -0.706 |

| SMILES | z-score |
| --- | --- |
| Cn1nnnc1SCC(=O)NC1CCCCC1 | -0.00615 |
| Cc1ccc(C)c(C(=O)CN2C(=O)NC3(CCC(C)CC3)C2=O)c1 (centres undefined) | -0.568 |
| O=C(Nc1ccccc1)N1CCN(c2ccc(C(F)(F)F)cn2)CC1 | -0.362 |
| Fc1cccc(NC(=S)NCCCN2CCOCC2)c1 | -0.0987 |
| O=C(NC1CCCCCCC1)c1ccc2c(c1)OCO2 | 0.914 |
| COc1ccc(C2C(CC(=O)O)=C(O)C(=O)N2c2ccccc2)cc1 (centres undefined) | 0.235 |
| C=CCOc1cccc(C2C(C(=O)c3ccc(C)o3)=C(O)C(=O)N2c2nccs2)c1 (centres undefined) | active: -3.73 |
| COc1cc(CNC(C)(C)C)cc(Br)c1OCc1cccs1 | 0.388 |
| COc1ccc(/C=C/C(=O)Nc2cc(C)nn2-c2nc3ccccc3n2Cc2cccc([N+](=O)[O-])c2)cc1 | -0.333 |
| CN(C(=S)Nc1ccc(F)cc1)C1(c2ccccc2Cl)CCCCC1=O (centres undefined) | -0.257 |
| O=C(CCS(=O)(=O)c1ccccc1)Nc1nccs1 | 0.417 |
| CCn1c(CSc2nc3ccccc3[nH]2)nc2cc(C(=O)O)ccc21 | -0.153 |
| Cc1cccc(N2C(=O)CC(Sc3ccccc3C(=O)O)C2=O)c1 (centres undefined) | 0.0899 |
| O=[N+]([O-])c1cc(C(F)(F)F)ccc1NCCc1c[nH]c2ccc(O)cc12 | -0.00187 |
| O=[N+]([O-])c1cc(S(=O)(=O)Nc2ccccc2)ccc1NCc1cccnc1 | -0.109 |
| O=C1C2C3CC(C(Br)C3Br)C2C(=O)N1c1ccccn1 (centres undefined) | -0.244 |
| Cc1ccc(-c2ccnc3nc(Sc4ncc(C(F)(F)F)cc4Cl)nn23)cc1 | -1.69 |
| O=c1cc(N2CCOCC2)[nH]c(=O)n1Cc1ccc(F)cc1 | 0.497 |
| Cc1cc(NC(=O)CSc2nc(CCC3CCCC3)nc3ccccc23)no1 | 0.284 |
| O=C(CCS(=O)(=O)c1ccc(Br)cc1)NC1CCCC1 | -0.148 |
| CCOC(=O)C1CCN(C(=O)COc2cc(C)c(Br)c(C)c2)CC1 | -0.264 |
| CC(=O)Nc1nnc(C)s1 | active: 3.66 |

| SMILES | z-score |
| --- | --- |
| Cc1ccc(-c2nnc(SCC(=O)CC(=O)Nc3ccccc3)n2-c2ccccc2)cc1 | -0.207 |
| Cc1cccc(OCC(=O)NC2CCCc3ccccc32)c1C (centres undefined) | -0.26 |
| Cn1nc(C(F)(F)F)c(/C=N/OC(=O)c2ccccc2)c1Sc1ccc(Cl)cc1 | -0.0788 |
| CCOC(=O)CS(=O)(=O)c1ccc(C(F)(F)F)cn1 | -0.0154 |
| N#CC1=C(N)OC2=C(C(=O)CCC2)C1C1CC=CCC1 (centres undefined) | -0.603 |
| CCCCc1c(O)nc(SCC(=O)c2ccccc2)[nH]c1=O | 0.997 |
| Cc1c(Cl)cccc1NC(=O)CSCC(N)=O | -0.121 |
| CCN1CCN(c2cc(C)c3cc(NC(=O)c4ccccc4F)ccc3n2)CC1 | -0.352 |
| Cc1ccc(CNC(=O)CCSCCC(=O)NCc2ccc(C)cc2)cc1 | 0.233 |
| CCOC(=O)c1c(C)[nH]c(C(=O)COC(=O)CNC(=O)C2CCCCC2)c1C | -0.797 |
| CC(C)c1ccc2oc(=O)cc(CN3CCN(c4ccc(F)cc4)CC3)c2c1 | -0.507 |
| CCn1c(SCc2ccc([N+](=O)[O-])cc2)nnc1C(C)NC(=O)c1ccc(C)cc1 (centres undefined) | -0.256 |
| CCc1sc(N(C(=O)Cc2ccccc2)c2ccc(F)cc2)nc1-c1ccccc1 | -0.45 |
| CCn1cnc2c1c(=O)n(Cc1nnc3n1-c1ccccc1SC3)c(=O)n2Cc1ccccc1 | 0.0685 |
| COC(=O)CP(=O)(c1ccccc1)c1ccccc1 | 0.162 |
| COc1cc(C(=O)Nc2nnc(C)s2)cc(OC)c1OC | 0.381 |
| Cn1c(=O)c2c3c(sc2n2c(SCC(N)=O)nnc12)CC(C(C)(C)C)CC3 (centres undefined) | 1.12 |
| Cn1c(-c2ccccc2)cnc1SCc1nc2ccccc2c(=O)[nH]1 | -0.441 |
| CCOc1ccc(CN(C)CC(=O)Nc2cc(OC)c([N+](=O)[O-])cc2C)cc1 | -0.49 |
| CCCC1(C(=O)OCC)NC(c2ccc(N(C)C)cc2)C2C(=O)N(c3ccccc3)C(=O)C21 (centres undefined) | -0.167 |
| O=C(NCc1ccc2c(c1)OCO2)c1c(F)c(F)c(F)c(F)c1F | -0.0878 |
| CCC1CCCCN1C(=O)CSc1nnc(-c2ccc(Cl)s2)o1 (centres undefined) | -0.825 |

| SMILES | z-score |
| --- | --- |
| CCS(=O)(=O)N1CCN(C2Cc3ccccc3C2)CC1 | -0.309 |
| COC(=O)C1=C(C)Nc2ncnn2C1c1ccc(C)o1 (centres undefined) | 1.09 |
| O=C(c1ccco1)N1CCN(C(=O)C(c2ccccc2)c2ccccc2)CC1 | 0.626 |
| Cc1cccc(N(C(=O)C(F)(F)F)C(C(=O)NC2CCCCC2)c2cccs2)c1 (centres undefined) | -0.00957 |
| O=S(=O)(c1ccc(NC(=S)N/N=C/c2ccc(N3CCOCC3)cc2)cc1)N1CCOCC1 | -0.0983 |
| CC(C)OC(=O)CSc1nc2ncc(Cl)cc2[nH]1 | -0.0878 |
| CCC(=O)OC1c2ccccc2C(=O)N1Cc1ccccc1 (centres undefined) | -0.264 |
| CCCc1nnc(NC(=O)CNc2ccc(F)cc2)s1 | 0.0228 |
| O=C(N1CCOCC1)C12CCC3CC(CC(C3)C1)C2 | -0.494 |
| CCC(C)NCCOc1cccc(Br)c1 (centres undefined) | -0.179 |
| COC(=O)c1sc(NC(=O)c2ccoc2C)nc1C | 0.0344 |
| CCCn1cnc2c(c1=O)c1nc3ccccc3nc1n2CCC1=CCCCC1 | 0.434 |
| O=C(c1cc([N+](=O)[O-])ccc1Cl)N1CCN(c2ccc(F)cc2)CC1 | 0.0701 |
| Cc1oc(=O)c(NC(=O)c2ccc(Cl)cc2)cc1C(=O)c1ccccc1 | -0.0857 |
| COc1ccccc1NC(=O)Cn1cncc1-c1ccc([N+](=O)[O-])cc1 | -0.494 |
| O=C1C(C=NCCCN2CCOCC2)=C(O)c2ccccc21 | 0.436 |
| CC(=O)Nc1cc(C(=O)N2CCc3ccccc3C2)ccc1Sc1ccc(C)cc1 | -0.769 |
| COCCn1nnnc1C(c1ccc(OC)cc1)N1CCN(c2ccccc2F)CC1 (centres undefined) | -0.282 |
| COc1ccc(CCNC(=O)C2CC(=O)N(C3CCCCCCC3)C2)cc1OC (centres undefined) | -0.284 |
| CN(C)c1ccc(/C=N/NC(=O)c2ccc(Cl)cc2)cc1 | -0.158 |
| Cc1ccc(C(=O)N2CCN(C3c4cccc5cccc(c45)C3NS(=O)(=O)c3ccccc3)CC2)cc1 (centres undefined) | -0.141 |
| O=C(NC(NCc1cccnc1)C(Cl)(Cl)Cl)c1cccc2ccccc12 (centres undefined) | -0.344 |

| SMILES | z-score |
| --- | --- |
| O=S1(=O)CCC(NC(=S)NC2CCS(=O)(=O)C2)C1 (centres undefined) | -0.357 |
| COc1cccc(S(=O)(=O)Nc2ccc(C(=O)N3CCOCC3)cc2)c1 | 0.0144 |
| COc1cc(S(=O)(=O)Nc2cccc(C)c2)ccc1N=Cc1c(C)[nH]n(-c2ccccc2)c1=O | -0.226 |
| O=C(CCc1ccc(S(=O)(=O)N2CCOCC2)cc1)Nc1cc(Cl)ccc1N1CCOCC1 | 0.154 |
| O=C(c1cc(-n2cnnc2)ccc1Cl)N1CCN(c2nc(-c3ccccc3)cs2)CC1 | -0.347 |
| Cc1cccn2cc(CCNC(=O)c3ccc(Br)o3)nc12 | -0.156 |
| COc1ccc(C2(CNC(=O)c3ccc(OC)c([N+](=O)[O-])c3)CCCCC2)cc1OC | -0.559 |
| CCCn1c(=O)n(C)c(=O)c2c(SCC(=O)NCc3ccco3)nc(C3CC3)nc21 | -0.234 |
| COC(=O)c1ccccc1NC(=O)C(CCS(C)(=O)=O)NC(C)=O (centres undefined) | 0.381 |
| COC(=O)c1ccc(NC(=O)C(=O)N2CCN(C(=S)Nc3cccc(C)c3C)CC2)cc1 | -0.146 |
| CCCCCC(=O)Nc1ccc(N2CCN(C(=O)CCC)CC2)cc1 | 0.155 |
| CCCc1cc(C(=O)NCc2ccc(OC)cc2)no1 | -0.288 |
| COc1cccc(C2=NC(C)(C)NC(c3ccccc3O)C2)c1 (centres undefined) | 0.107 |
| CCOC(=O)N1CCN(C(=O)c2oc3ccc(S(=O)(=O)N4CC(C)CC(C)C4)cc3c2C)CC1 (centres undefined) | -2.63 |
| CC(=O)Nc1ccc(NC(=O)CCCCCN2C(=O)c3ccccc3C2=O)cc1 | -0.643 |
| OC(COC(c1ccccc1)c1ccccc1)CN1CCCCC1 (centres undefined) | 0.783 |
| C=CCn1c(C(C)NC(=O)c2ccccc2)n[nH]c1=S (centres undefined) | -0.78 |
| COC(=O)/C(=C\Nc1ccc(Cl)cc1Cl)NC(=O)c1ccc(Cl)cc1Cl | -0.0181 |
| COc1ccc(CCN2C(=O)c3[nH]nc(-c4ccccc4O)c3C2c2ccccc2)cc1OC (centres undefined) | -0.0134 |
| O=C(CN1CCN(c2ccccc2O)CC1)Nc1ccc2c(c1)CCC2 | -0.114 |
| COc1ccc(NC(=O)C(=O)N/N=C/c2cc(C)n(-c3cccc(Cl)c3Cl)c2C)c(OC)c1 | -0.134 |
